# Test results from the supplement of paper PMC3334620.
# Over roughly 33,000 sequences, “E-score (-0.5 to 0.5)” has its median near -0.035; the highest 2% begin near 0.35. The list shows a part of the results.
# Molecular target: T1, Pdr3 (UniProt P33200)
# T1 sequence: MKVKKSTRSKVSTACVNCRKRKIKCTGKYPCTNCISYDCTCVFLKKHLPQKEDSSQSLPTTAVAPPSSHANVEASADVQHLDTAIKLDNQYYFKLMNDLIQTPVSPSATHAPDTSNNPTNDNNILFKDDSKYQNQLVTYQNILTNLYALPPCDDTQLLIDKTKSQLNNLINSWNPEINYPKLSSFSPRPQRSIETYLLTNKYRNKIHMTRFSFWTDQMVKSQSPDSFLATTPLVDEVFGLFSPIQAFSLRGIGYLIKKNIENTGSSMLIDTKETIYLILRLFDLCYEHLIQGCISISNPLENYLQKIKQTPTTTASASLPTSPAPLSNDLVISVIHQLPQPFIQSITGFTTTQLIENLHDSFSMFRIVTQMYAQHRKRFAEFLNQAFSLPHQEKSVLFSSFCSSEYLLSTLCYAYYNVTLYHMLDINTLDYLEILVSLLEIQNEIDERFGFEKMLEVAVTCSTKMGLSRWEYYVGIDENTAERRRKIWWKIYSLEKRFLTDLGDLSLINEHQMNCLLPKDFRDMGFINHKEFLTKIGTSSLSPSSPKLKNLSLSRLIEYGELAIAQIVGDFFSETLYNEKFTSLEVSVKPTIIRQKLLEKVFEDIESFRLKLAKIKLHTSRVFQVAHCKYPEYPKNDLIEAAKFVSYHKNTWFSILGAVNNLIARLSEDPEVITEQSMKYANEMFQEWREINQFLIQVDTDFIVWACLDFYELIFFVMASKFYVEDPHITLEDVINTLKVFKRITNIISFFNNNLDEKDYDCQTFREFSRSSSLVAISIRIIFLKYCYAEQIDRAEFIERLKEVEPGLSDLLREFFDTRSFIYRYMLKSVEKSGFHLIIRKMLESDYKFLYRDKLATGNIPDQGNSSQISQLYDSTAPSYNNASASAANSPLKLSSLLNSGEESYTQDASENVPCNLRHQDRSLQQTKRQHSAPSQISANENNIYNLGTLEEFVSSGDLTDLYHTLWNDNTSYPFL
# Experiment: PBM E-score (8-mer binding enrichment) (E-score (-0.5 to 0.5)); higher = stronger / more preferred TF binding; most listed sequences are background and not binding sites
# Conditions: protein concentration: 200 nM; construct: GST-full length
# Method: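 Universal 'all 10-mer' protein binding microarrays (Agilent AMADID 015681) probed with GST-tagged S. cerevisiae TFs (full-length or DBD) made by in vitro transcription/translation (PURExpress), about 100-200 nM. Bound TF was detected with fluorescent anti-GST. Each ungapped 8-mer (which stands for itself and its reverse complement) is scored by the PBM enrichment score (E-score), a modified Wilcoxon-Mann-Whitney statistic from -0.5 to +0.5, computed with the Universal PBM Analysis Suite. Scale: above 0.35 generally sequence-specific binding.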
row,Sequence,PBM E-score
1,CCAAGAAC,-0.155
2,AGTTCAAT,-0.139
3,ACCTAATG,-0.305
4,CCGCCTAC,0.127
5,GCACACAC,0.019
6,GTCCACAA,-0.163
7,CCCAAAAA,-0.0957
8,TAATCGTA,-0.1
9,TCCTGAGA,-0.258
10,AGAGGATC,-0.0144
11,ATTGCGTG,0.0079
12,ACGATCCG,0.368
13,ACCACAAG,0.0845
14,CGGTCCGC,0.323
15,ATGTCGAG,-0.0433
16,GGTCGAGA,-0.0302
17,TTAGCTAA,-0.342
18,ACTACAAA,0.12
19,AGGTAACT,-0.0303
20,CCTCAAGA,-0.0908
21,AAAGAGAA,-0.103
22,CCCTTTCC,0.082

row,Sequence,PBM E-score
1,ACCAACAA,0.137
2,GTATGCCA,-0.15
3,ACTTTCCC,0.0862
4,CTTGTTTA,-0.0276
5,AACGCGGT,0.1
6,CAATCTTA,-0.104
7,CCGTGATC,0.232
8,ACCTTGCA,-0.141
9,ACCAGCGG,0.117
10,TCAACGAA,0.0322
11,ATGGCCAG,0.0413
12,AGCGAAAA,-0.0892
13,ATAAGCTA,-0.181
14,CGCCAGTC,-0.0682
15,ACTTGCAG,-0.177
16,CTTAACCC,-0.157
17,TTGAAAAA,-0.101
18,AAAGTCTT,-0.128
19,ACTCTACT,-0.0826
20,ACGACGAA,0.0114
21,AGAGAAGA,-0.161
22,CCCCCAGA,-0.319

row,Sequence,PBM E-score
1,ATTGCGTC,0.163
2,CACCCAAC,0.0734
3,AACTTATG,-0.11
4,CGTAATTC,-0.0514
5,AGTATGTC,0.0221
6,GCCCAAAC,0.0686
7,GAAATATC,0.195
8,ACCTACTC,0.0138
9,AGCCGGCC,0.266
10,AAGTCAGA,-0.0495
11,CACGGTCA,0.0472
12,AAGCTTGA,-0.0429
13,CCCTCGGA,0.373
14,CAGGCCGA,0.0831
15,ACAACGAT,0.052
16,CTTCTCAC,0.0861
17,CGACCCAG,-0.0252
18,AGCCGGCG,0.372
19,ACACGACA,-0.0523
20,TCCGTAAA,0.346
21,GTAGAGCA,-0.269
22,ACTCTGGG,-0.086

row,Sequence,PBM E-score
1,AGCGCTCG,0.0716
2,TCTGACCA,-0.0719
3,CCTCGCAC,0.00281
4,GCGGCGAC,0.285
5,ACAACCAC,-0.0524
6,CCACCGGA,0.428
7,ATCATTGC,-0.168
8,ATGGATTA,-0.209
9,ACATGGCT,-0.135
10,CCTCATAA,-0.171
11,AGTTGGTG,0.00428
12,AATTGGGT,0.117
13,GAGAGATC,0.00988
14,TCGATGCA,-0.107
15,AAATCGAC,0.0112
16,AAACGCTC,-0.141
17,CGTAGCAC,-0.141
18,ATCGCCCA,-0.126
19,CTGACGTC,-0.141
20,AGACAAGC,-0.0931
